The values that follow come from PMC4275180.

Amino acid sequences for entries named in this document (tags omitted). A change or cut given only in a name is not applied to a line headed by its entry.
UniProt P42224: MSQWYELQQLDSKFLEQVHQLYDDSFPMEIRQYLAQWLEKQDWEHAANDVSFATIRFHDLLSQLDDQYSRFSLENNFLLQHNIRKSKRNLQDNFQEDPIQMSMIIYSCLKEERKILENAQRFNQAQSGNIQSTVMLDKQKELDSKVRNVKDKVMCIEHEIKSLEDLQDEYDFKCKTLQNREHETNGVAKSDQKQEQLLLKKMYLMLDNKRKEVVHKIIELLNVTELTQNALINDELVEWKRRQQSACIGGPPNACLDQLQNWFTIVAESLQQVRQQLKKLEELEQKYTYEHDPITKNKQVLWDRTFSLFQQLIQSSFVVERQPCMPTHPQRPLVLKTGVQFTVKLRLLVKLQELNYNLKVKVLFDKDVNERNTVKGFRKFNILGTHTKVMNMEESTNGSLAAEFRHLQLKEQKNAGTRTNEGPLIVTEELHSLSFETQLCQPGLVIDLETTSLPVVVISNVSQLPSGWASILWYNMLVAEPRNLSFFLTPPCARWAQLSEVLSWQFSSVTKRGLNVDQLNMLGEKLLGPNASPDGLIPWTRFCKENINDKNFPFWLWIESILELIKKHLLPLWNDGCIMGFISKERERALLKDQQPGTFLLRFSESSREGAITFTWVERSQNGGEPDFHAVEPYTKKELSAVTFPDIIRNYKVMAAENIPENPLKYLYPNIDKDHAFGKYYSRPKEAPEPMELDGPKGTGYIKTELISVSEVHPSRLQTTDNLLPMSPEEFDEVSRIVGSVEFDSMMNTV

These are yes or no findings as the source states them, for the method shown. In cells and extracts the contact can be indirect. Some binding calls cover weakened binding; strength is not graded here. Sequences can lack the tags named with a protein.

The target of one assay is T1, GST-KDM3A (1-394) S264A (UniProt Q9Y4C1).
T1 sequence: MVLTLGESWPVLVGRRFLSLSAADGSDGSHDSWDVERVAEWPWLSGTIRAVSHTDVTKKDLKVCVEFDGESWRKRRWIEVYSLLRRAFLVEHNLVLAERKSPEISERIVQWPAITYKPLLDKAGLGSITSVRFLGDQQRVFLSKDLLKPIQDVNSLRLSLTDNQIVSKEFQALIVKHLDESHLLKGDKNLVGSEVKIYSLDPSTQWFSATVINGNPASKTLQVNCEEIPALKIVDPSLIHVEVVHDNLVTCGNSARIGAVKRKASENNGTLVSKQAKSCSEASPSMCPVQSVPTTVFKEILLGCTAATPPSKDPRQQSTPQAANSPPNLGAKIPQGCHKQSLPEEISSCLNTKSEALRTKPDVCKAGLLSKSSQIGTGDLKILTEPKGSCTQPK
The experiment in a line: pull-down; GST pull-down with recombinant 1-394 fragments of KDM3A (wild type, S/A, S/D) and HA-Stat1(129-317).

Another assay concerns the target T2, GST-KDM3A (1-394) S264D (UniProt Q9Y4C1).
T2 sequence: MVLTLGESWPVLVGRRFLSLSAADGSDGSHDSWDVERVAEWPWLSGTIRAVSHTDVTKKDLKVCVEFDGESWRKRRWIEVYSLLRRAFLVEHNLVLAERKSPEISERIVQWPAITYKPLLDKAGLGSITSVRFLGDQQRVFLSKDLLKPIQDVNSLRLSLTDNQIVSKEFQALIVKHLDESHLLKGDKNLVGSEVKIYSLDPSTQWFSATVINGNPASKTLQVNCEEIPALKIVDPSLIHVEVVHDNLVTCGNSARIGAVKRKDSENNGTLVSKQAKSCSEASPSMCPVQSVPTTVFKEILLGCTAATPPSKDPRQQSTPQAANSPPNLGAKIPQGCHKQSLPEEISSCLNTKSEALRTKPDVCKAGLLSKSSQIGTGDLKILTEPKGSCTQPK
The description is as above.

The target in assay [1] is T3, GST-KDM3A (1-394), wild type (UniProt Q9Y4C1).
T3 sequence: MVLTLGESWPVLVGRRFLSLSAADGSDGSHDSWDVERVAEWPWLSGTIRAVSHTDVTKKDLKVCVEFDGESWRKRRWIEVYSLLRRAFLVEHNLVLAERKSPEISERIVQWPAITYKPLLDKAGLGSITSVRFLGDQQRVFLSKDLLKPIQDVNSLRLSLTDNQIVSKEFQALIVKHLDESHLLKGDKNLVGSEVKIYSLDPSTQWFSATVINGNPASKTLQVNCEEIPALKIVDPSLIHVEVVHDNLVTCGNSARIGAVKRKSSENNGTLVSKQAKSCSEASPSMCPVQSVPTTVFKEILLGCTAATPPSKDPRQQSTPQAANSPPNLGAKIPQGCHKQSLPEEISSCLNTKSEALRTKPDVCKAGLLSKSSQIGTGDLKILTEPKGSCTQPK
Described as above.

Assay [2] has as its target T4, FLAG-KDM3A-S264D (214-306) (UniProt Q9Y4C1).
T4 sequence: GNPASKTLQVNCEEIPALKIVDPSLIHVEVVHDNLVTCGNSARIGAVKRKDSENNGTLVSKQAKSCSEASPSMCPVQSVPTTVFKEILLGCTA
The experiment in a line: co-IP; FLAG-KDM3A-S264D (214-306) co-transfected with an HA-Stat1 fragment into Jurkat cells; whole cell extract, IP anti-FLAG; western blot anti-HA. For orientation: Immunoblotting shows a protein as a band on a membrane.

The target in assay [3] is HA-Stat1 (129-317), truncation mutant S5 (UniProt P42224). Put plainly: co-IP; FLAG-KDM3A construct co-transfected with HA-Stat1 construct into Jurkat cells, with or without heat shock; whole cell extract, IP anti-HA; western blot anti-FLAG.
In assay [4] the target is HA-Stat1, full length (S1) (UniProt P42224). The description is as above.
For a further assay, the target named is HA-Stat1 (231-317) (UniProt P42224). The description is as above.

For “HA-Stat1 (129-317), truncation mutant S5 (from UniProt P42224 129-317) (domain or fragment)”, the values for the binding entry (with GST-KDM3A (1-394) S264A; in the assay with GST-KDM3A (1-394) S264D; in assay [1]) were “no binding”, “binds” and “no binding”, respectively.

Turning to “HA-Stat1 (231-317) (from UniProt P42224 231-317) (domain or fragment)”, the binding result in assay [2] is on record as “binds”.

B1: FLAG-KDM3A-S264D, full length (protein, UniProt Q9Y4C1 1-1321)
chain: MVLTLGESWPVLVGRRFLSLSAADGSDGSHDSWDVERVAEWPWLSGTIRAVSHTDVTKKDLKVCVEFDGESWRKRRWIEVYSLLRRAFLVEHNLVLAERKSPEISERIVQWPAITYKPLLDKAGLGSITSVRFLGDQQRVFLSKDLLKPIQDVNSLRLSLTDNQIVSKEFQALIVKHLDESHLLKGDKNLVGSEVKIYSLDPSTQWFSATVINGNPASKTLQVNCEEIPALKIVDPSLIHVEVVHDNLVTCGNSARIGAVKRKDSENNGTLVSKQAKSCSEASPSMCPVQSVPTTVFKEILLGCTAATPPSKDPRQQSTPQAANSPPNLGAKIPQGCHKQSLPEEISSCLNTKSEALRTKPDVCKAGLLSKSSQIGTGDLKILTEPKGSCTQPKTNTDQENRLESVPQALTGLPKECLPTKASSKAELEIANPPELQKHLEHAPSPSDVSNAPEVKAGVNSDSPNNCSGKKVEPSALACRSQNLKESSVKVDNESCCSRSNNKIQNAPSRKSVLTDPAKLKKLQQSGEAFVQDDSCVNIVAQLPKCRECRLDSLRKDKEQQKDSPVFCRFFHFRRLQFNKHGVLRVEGFLTPNKYDNEAIGLWLPLTKNVVGIDLDTAKYILANIGDHFCQMVISEKEAMSTIEPHRQVAWKRAVKGVREMCDVCDTTIFNLHWVCPRCGFGVCVDCYRMKRKNCQQGAAYKTFSWLKCVKSQIHEPENLMPTQIIPGKALYDVGDIVHSVRAKWGIKANCPCSNRQFKLFSKPASKEDLKQTSLAGEKPTLGAVLQQNPSVLEPAAVGGEAASKPAGSMKPACPASTSPLNWLADLTSGNVNKENKEKQPTMPILKNEIKCLPPLPPLSKSSTVLHTFNSTILTPVSNNNSGFLRNLLNSSTGKTENGLKNTPKILDDIFASLVQNKTTSDLSKRPQGLTIKPSILGFDTPHYWLCDNRLLCLQDPNNKSNWNVFRECWKQGQPVMVSGVHHKLNSELWKPESFRKEFGEQEVDLVNCRTNEIITGATVGDFWDGFEDVPNRLKNEKEPMVLKLKDWPPGEDFRDMMPSRFDDLMANIPLPEYTRRDGKLNLASRLPNYFVRPDLGPKMYNAYGLITPEDRKYGTTNLHLDVSDAANVMVYVGIPKGQCEQEEEVLKTIQDGDSDELTIKRFIEGKEKPGALWHIYAAKDTEKIREFLKKVSEEQGQENPADHDPIHDQSWYLDRSLRKRLHQEYGVQGWAIVQFLGDVVFIPAGAPHQVHNLYSCIKVAEDFVSPEHVKHCFWLTQEFRYLSQTHTNHEDKLQVKNVIYHAVKDAVAMLKASESSFGKP
As for B1, the binding result in assay [3] and in assay [4] was “binds” in each case.

B2: FLAG-KDM3A-S264D (214-306) (domain or fragment, UniProt Q9Y4C1 214-306)
chain: GNPASKTLQVNCEEIPALKIVDPSLIHVEVVHDNLVTCGNSARIGAVKRKDSENNGTLVSKQAKSCSEASPSMCPVQSVPTTVFKEILLGCTA
For B2, the binding result (in assay [3]; with HA-Stat1 (231-317)) was “binds” each time.

B3: FLAG-KDM3A (214-306), wild type, in heat-shocked cells (domain or fragment, UniProt Q9Y4C1 214-306)
chain: GNPASKTLQVNCEEIPALKIVDPSLIHVEVVHDNLVTCGNSARIGAVKRKSSENNGTLVSKQAKSCSEASPSMCPVQSVPTTVFKEILLGCTA
modifications: phosphoserine at 264 (the paper calls it the 93aa fragment of p-KDM3A under HS)
Regarding B3, in the assay with HA-Stat1 (231-317), the binding entry is on record as “binds”.
